ChEMBL document CHEMBL4888484, “Replenishing the malaria drug discovery pipeline: Screening and hit evaluation of the MMV Hit Generation Library 1 (HGL1) against asexual blood stage Plasmodium falciparum ,using a nano luciferase reporter read-out” (2022)
About 540 (0.36%) of roughly 150,000 compounds showed an effect of 50% or more. The list shows a part of the results.

test system: Plasmodium falciparum; assay: Primary screen in NF54 nanoGlo assay, in single point, at 2uM, 72h; a lower Z score goes with more inhibition; type: functional, Erythrocyte; settings: timepoint 72 hour

Structure (SMILES) | % Inhibition [%] | Z score
CC(=O)N1CC(OCC(=O)Nc2nc(-c3ccc(F)c(Cl)c3)cs2)C1 | 21 | -2.49
CCn1c(-c2cnccn2)nnc1N1CCC(C)(COC)CC1 | -10 | 1.17
CN(Cc1ccc(F)cc1)c1cc([C@H]2CCOC2)nc(NCCO)n1 | -12 | 2.33
CC(C)[C@H]1C(=O)N(C)CCN1CC(=O)NCCc1ccc(F)cc1 | -9 | 0.87
CO[C@H]1CCN(C(=O)NC(C)(C)C)C1 | -12 | 1.72
N#Cc1cnc(NC2(CN3CCCCC3)CC2)nc1N | -6 | 0.95
CN1C(C)(C)CC(n2cc(-c3ccc(C#CCCO)cc3)nn2)CC1(C)C | -4 | 0.57
C[C@]1(O)CCCN(c2cncc(OCC3CCCC3)n2)C1 | -7 | 1.2
O=C(c1ccc2ncsc2c1)N1CC[C@H](N2CCOC2=O)C1 | -2 | 0.33
COC1(CNS(=O)(=O)c2ccc(OCC(N)=O)cc2)Cc2ccccc2C1 | 6 | -0.81
CC1CC1c1ccc(CNCc2nnc(C(C)(C)C)s2)o1 (configuration not stated) | -7 | 1.34
CCOc1ccc(Nc2cc(Nc3ccc(C)c(Cl)c3)cc(N3CCOCC3)c2)cc1 | 6 | -0.92
O=C1Nc2ccccc2C(=O)N2CCC[C@@H]12 | -5 | 0.56
C#CCCC1(CCC(=O)N2CC(n3ccnc3)C2)N=N1 | -17 | 2.08
Cc1cccnc1CNC(=O)C(=O)Nc1nc2ccccc2s1 | 2 | -0.44
CCC1CN(C(=O)Nc2ccc3c(n2)CCC3)CC(CC)O1 (configuration not stated) | 1 | -0.15
CNC(=O)CNC(=O)c1ccccc1C | -10 | 0.9
CC1CN(C(=O)C2COCC(=O)N2Cc2ccccc2)CCO1 (configuration not stated) | 3 | -0.43
CNC(=O)CCOC(=O)c1ccc(F)c(C)c1 | -12 | 1.74
Cn1cc(S(=O)(=O)N(CC(F)F)C2CC2)cc1C(N)=O | -4 | 0.45
COc1cccc(NC(=O)c2nnc(CCC(=O)Nc3cc(C)ccc3F)s2)c1 | -6 | 1.1
O=C(c1cccc(C(F)(F)F)c1)N1CCn2nc3c(c2C1)CCC3 | 5 | -0.87

Structure (SMILES) | % Inhibition [%] | Z score
Cc1ccc(C(=O)NC2CCN(C(=O)c3cn(C)c4ccccc34)CC2)o1 | -13 | 1.27
Cc1cc(C)c(C#N)c(N2CCC(n3cc(C(=O)N4CCCCC4)nn3)CC2)n1 | -3 | 0.57
CCCc1nc(CN(C)CC(C)(C)O)cs1 | -14 | 1.47
CC(C)C(=O)N1CCOc2ccc(CN3CCCCCC3)cc2C1 | -7 | 1.41
CC(=O)NCc1cc2n(n1)CCN(S(=O)(=O)c1ccc(Cl)s1)C2 | -9 | 1.33
CN1C(=O)[C@@H]2CC[C@H]1CN(C1CCN(c3ncc4ccc(F)cc4n3)CC1)C2 | 3 | -0.38
OC[C@H](CNc1ncccn1)Cc1cccc(Br)c1 | -11 | 2.09
O=C(NCc1ccoc1)C1(N2CCCC2)CCCC1 | 6 | -0.83
COc1cccc(-c2cc(C(=O)Nc3c(C)noc3C)c3c(C)nn(C)c3n2)c1 | 14 | -2.25
Cc1cncnc1C1CCN(C(=O)[C@H](O)c2ccc(Cl)cc2)CC1 | -17 | 2.5
Cc1ccc2c(c1)[C@@H](NC(=O)Cc1ccncc1)CC(C)(C)O2 | -11 | 1.74
COc1cccc(CNS(=O)(=O)c2cc(-c3nc(-c4ccc(Cl)cc4)no3)cs2)c1 | -9 | 0.97
CCN(CC#N)S(=O)(=O)[C@H]1C[C@@H]1c1ccc(Br)cc1 | -9 | 1.47
COc1ccc(-c2cc(C)no2)cc1S(=O)(=O)CCC(=O)NCCc1ccccc1 | -10 | 1.32
COc1ccc(CCNC(=O)N2CCC[C@H](Oc3cc(C#N)ccn3)C2)cc1 | 1 | -0.08
Cc1nnc(-c2ccc3ccn(CC(=O)Nc4cccc(C)c4C)c3c2)o1 | 24 | -2.87
COc1ccc(NC(=O)[C@H]2CCCN(c3ccnc(-c4ccc(F)cc4)n3)C2)c(OC)c1 | -2 | 0.23
Cc1sc(=O)n(CC(=O)N2CCN(C)C[C@H]2c2ccccc2)c1-c1ccc(F)cc1 | 23 | -2.9
CCCC(=O)N1CCC[C@H](c2nn(CCOC)c(=O)n2C2CC2)C1 | 7 | -0.78
COC1CN(C(=O)Cc2c(C)n[nH]c2C)CCC1C (configuration not stated) | -1 | 0.07
CC(C)NC(=O)CCN1CC[C@@]2(CCCN(Cc3cccc(F)c3F)C2=O)C1 | 2 | -0.31
COc1ccc(Nc2c(C(=O)N3CCC[C@H](C)C3)cnc3nc(C)ccc23)cc1 | -11 | 1.74

Structure (SMILES) | % Inhibition [%] | Z score
O=C(Cc1ccc(O)cc1)N[C@@H](CC1CCCCC1)C(=O)O | 2 | -0.27
Cc1ccc(NC(=O)Cn2c(=O)ccc3cc(S(=O)(=O)N4CCCC4)ccc32)c(C)c1 | 1 | -0.18
CC(C)C[C@@H](Nc1c(C#N)c(=O)n(C)c(=O)n1C)C(=O)OC(C)(C)C | -10 | 0.97
CC(C)=CCC[C@@]1(C)CCC(=O)N(Cc2nnc3ccccn23)C1 | -6 | 1.1
CCCCn1ccnc1C1CCN(C(=O)c2cccc(NC(C)=O)c2)CC1 | 0 | 0.04
Cc1occc1C(=O)NC1(c2ccccc2F)COC1 | 5 | -1.04
O=S(=O)(c1ccc2c(c1)CCO2)N1CCC(OCCc2ccccc2)CC1 | -3 | 0.6
Cc1c(C(=O)NCCc2cccs2)cnn1C | -1 | 0.06
C[C@H](NC(=O)NCCNS(C)(=O)=O)c1ccsc1 | -10 | 1.09
Cc1ccc(OCC(=O)NC2CCN(c3ccccc3C#N)CC2)cc1 | -6 | 0.7
Cn1cc(CN2CCC([C@H](O)c3cccnc3)CC2)c(-c2ccc3c(c2)OCCO3)n1 | -8 | 1.36
O=C(CN1CCN(C2CC2)C1=O)NC1(Cc2ccccc2Br)CC1 | -2 | 0.39
COc1cccc(OC/C=C/CN2CCN(C)CC2)c1 | 0 | -0.01
Cc1noc(C)c1S(=O)(=O)NCC1(O)CCCC1 | -3 | 0.56
CCOCc1nc2c(c(NC[C@H](C)n3cc(C)cn3)n1)CCNCC2 | -4 | 0.73
CCC(=O)Nc1ccc(-c2c(F)cccc2OC)c(C)n1 | -6 | 1.04
O=C([C@@H]1CCCCN1C(=O)c1ccc(F)c(F)c1)N1CCOCC1 | -7 | 0.89
CC(C)Cn1ccnc1CNc1cccc(F)c1C#N | -6 | 0.57
Cc1cc(C(=O)Nc2n[nH]c3ccnc(O)c23)n(C2CCOCC2)n1 | -2 | 0.2
CCn1nc(C(=O)N2[C@H](C)CCC[C@@H]2C)ccc1=O | 5 | -0.72
O=C(Nc1ccc(F)cc1Cl)[C@@H]1Oc2ccccc2NC1=O | -11 | 1.25
COc1ccccc1C(=O)N1CCN(c2cc(-n3ccc(C)n3)ncn2)CC1 | -6 | 0.91

Structure (SMILES) | % Inhibition [%] | Z score
Cc1nnc(N2CCN(C(=O)c3cccc(N(C)C)c3)CC2)s1 | -2 | 0.44
C[C@H](NC(=O)C1(C#N)CCCC1)c1ccco1 | -5 | 0.9
CC1CCC(C(C)C)C(OCC(=O)NC(C)c2nnc3n2CCC3)C1 (configuration not stated) | -4 | 0.54
Cc1nn(C)cc1Cn1ccc2ncccc2c1=O | -23 | 3.04
COc1ncc(C(=O)N[C@H]2COCC[C@@H]2OC)cn1 | 7 | -0.86
Cc1ccc(C)c(NC(=O)N(CCCN2CCN(C)CC2)C2CCOCC2)c1 | -15 | 1.28
CCCN(CC(=O)N(Cc1ccccc1)C1CCN(C(C)=O)CC1)S(=O)(=O)c1ccccc1 | -4 | 0.53
CC1COCC(C)N1c1ncc(-c2nnnn2-c2ccccc2)c(-c2cccc(C(F)(F)F)c2)n1 (configuration not stated) | -35 | 4.14
CN(C)C[C@@H](c1ccccc1)N(C)C(=O)Nc1ccc2c(cnn2C)c1 | -8 | 0.78
CCc1nc(Cn2cnc3c2c(=O)n(C)c(=O)n3C)cs1 | 3 | -0.52
O=C(NCCc1nccs1)N1CC(F)C1 | 3 | -0.25
Cc1ccc(S(=O)(=O)N(c2ccccc2)C2CCN(Cc3ccc(N(C)C)cc3)CC2)cc1 | -11 | 1.25
CC(C)(O)c1cc(-c2ccc(Oc3ccccc3)cc2)no1 | 1 | -0.12
CCC1CCCCC1OCC(=O)NCc1cncc(C)c1 (configuration not stated) | -1 | 0.13
C#CCOc1ccc([C@H]2CC(O)=Nc3nc(NC)sc32)cc1OC | 0 | 0.03
CN1CCN(CC[C@H]2CCCCN2C(=O)Nc2cccc3[nH]ncc23)CC1 | -10 | 1.29
Cc1noc(C)c1S(=O)(=O)N1CCC[C@H]1C(=O)Nc1ccc(Br)cc1 | 1 | -0.12
Cc1onc(N)c1S(=O)(=O)N[C@H]1CCc2cc(Cl)ccc21 | -7 | 0.66
Cc1ccc(Nc2nc(N(C)C)nc3nccnc23)c(C)c1 | -10 | 1.12
CC#CCn1nnc(-c2cccs2)n1 | 10 | -1.16
